Results reported in article PMC6919601, “Identification of Plasmodium dipeptidyl aminopeptidase allosteric inhibitors by high throughput screening” (PLoS ONE, 2019).
About 230 (0.21%) of roughly 110,000 compounds showed an effect of 50% or more. The list shows a part of the results.

molecular target: DPAP1 (Plasmodium falciparum, UniProt Q8IIJ9); test: primary screen, percent inhibition; read by cleavage of a fluorogenic dipeptide substrate; higher = more effect of the substance; parameters: species or system P. falciparum D10 trophozoite lysates; single well
Sequence (Q8IIJ9 whole entry, looked up): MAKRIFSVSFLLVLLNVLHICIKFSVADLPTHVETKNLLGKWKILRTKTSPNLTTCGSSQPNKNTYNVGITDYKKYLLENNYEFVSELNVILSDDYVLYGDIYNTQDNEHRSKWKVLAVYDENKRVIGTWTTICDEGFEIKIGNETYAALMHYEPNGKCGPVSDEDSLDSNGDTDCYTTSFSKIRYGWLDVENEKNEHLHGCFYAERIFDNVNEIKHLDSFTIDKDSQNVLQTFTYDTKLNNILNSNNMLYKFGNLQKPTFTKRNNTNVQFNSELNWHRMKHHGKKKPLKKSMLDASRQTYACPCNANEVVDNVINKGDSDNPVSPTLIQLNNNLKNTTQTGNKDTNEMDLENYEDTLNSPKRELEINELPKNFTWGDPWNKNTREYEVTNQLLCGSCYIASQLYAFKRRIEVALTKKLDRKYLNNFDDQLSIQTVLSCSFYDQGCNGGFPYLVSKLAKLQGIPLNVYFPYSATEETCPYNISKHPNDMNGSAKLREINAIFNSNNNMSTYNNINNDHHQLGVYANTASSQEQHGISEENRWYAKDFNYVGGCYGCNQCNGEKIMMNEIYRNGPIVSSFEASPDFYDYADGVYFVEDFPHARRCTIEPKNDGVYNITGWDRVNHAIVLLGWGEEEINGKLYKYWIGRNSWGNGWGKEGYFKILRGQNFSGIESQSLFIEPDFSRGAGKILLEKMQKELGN
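Also: 30 min substrate incubation versus DMSO and 10 µM JCP410 controls.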

| Structure (SMILES) | % Inhibition @ 10 uM [%] |
| --- | --- |
| OCCN(CCO)c1nc(N2CCCCC2)ncc1F | 2.86 |
| Cc1ccc(NC2=NC(=O)C(CC(=O)Nc3ccccc3C(F)(F)F)S2)cc1 (stereo not drawn) | 5.97 |
| O=C(/C=C/c1ccco1)NCCCc1ccccc1 | -8.86 |
| Cc1ccc(C(=O)NC2(C(=O)NC3CCCC3)CCCCC2)cc1 | -6.37 |
| Cc1ccc(-n2nc(C)c3c(C(=O)N4CCC(C)CC4)cc(C)nc32)cc1 | 1.93 |
| COc1ccc(NS(=O)(=O)c2ccc(NS(=O)(=O)c3cc(Cl)ccc3Cl)cc2)cc1 | 1.67 |
| CCOc1ccc2nc(NC(=O)c3cc(=O)c4cc(Cl)ccc4o3)sc2c1 | 4.87 |
| O=C(NC1CCS(=O)(=O)C1)C12CC3CC(CC(C3)C1)C2 (stereo not drawn) | -1.15 |
| Cc1nc2cccnc2n1-c1ccc(C(=O)NCCN2CCN(C)CC2)cc1 | -7.68 |
| O=[N+]([O-])c1ccc(-n2c(O)nc3cccnc32)cc1 | -0.712 |
| O=C(NC1CCN(Cc2ccccc2)CC1)c1ccc(Cl)cc1Cl | -6.12 |
| CSc1ccc(C2CC(c3c(O)cc(C)oc3=O)=Nc3ccccc3S2)cc1 (stereo not drawn) | -3.26 |
| Cc1nc2cc(NC(=O)NC(C)(C)CC(C)(C)C)ccc2n1C | 6.79 |
| OC(c1ccc(F)cc1)(c1ccc(F)cc1)c1c[nH]cn1 | -5.29 |
| O=C(Nc1ccccc1)N1CCN(c2ccc(F)cc2)CC1 | 4.7 |
| O=C(Nc1ncc(Br)s1)C1CCCN(S(=O)(=O)c2c[nH]cn2)C1 (stereo not drawn) | -2.25 |
| N#CC1=C(N)Oc2cc(O)ccc2C1c1ccc(Br)s1 (stereo not drawn) | 3.54 |
| COc1cc(OC)c(OC)cc1CN1CCN(C(C)C)CC1 | 1.42 |
| COCCCNC(=O)c1ccc(-c2nc(CS(=O)(=O)c3ccccc3)c(C)o2)cc1 | -0.416 |
| CCOC(=O)C1=C(C)N(CCO)C(=O)NC1c1ccc(OCC)cc1 (stereo not drawn) | 0.503 |
| CC(C)c1ccc(C(C)C)c(S(N)(=O)=O)c1 | -1.42 |
| COc1ccc(C/N=C2/C=C(O)CC(C)(C)C2)cc1 | 2.92 |
| OCCNCc1cc(Br)ccc1OCc1ccccc1 | -3.04 |
| O=C(COc1ccccc1)N(Cc1ccco1)Cc1ccco1 | -4.67 |
| O=C1CC(NC2CCCC2)C(=O)N1c1ccc(N2C(=O)CC(NC3CCCC3)C2=O)cc1 (stereo not drawn) | 1.35 |

| Structure (SMILES) | % Inhibition @ 10 uM [%] |
| --- | --- |
| CCc1c(C)sc(NC(=O)c2ccc(Br)cc2)c1C(N)=O | 10.9 |
| COc1ccccc1CNC(=O)C(=O)NCC(c1cccnc1)N1CCOCC1 (stereo not drawn) | 0.00665 |
| Cc1cc(OCC(=O)NCc2ccc3c(c2)OCO3)ccc1Cl | 4.57 |
| CCO/C(O)=C1/C(C)=Nc2nc3ccccc3n2C1c1ccc(O)cc1 (stereo not drawn) | 6.45 |
| Cc1ccc(C)c(CN2CCc3c([nH]c4ccccc34)C2)c1 | -1.93 |
| Cc1ccccc1-c1nc2sc(C)c(C)c2c(=O)o1 | -3.28 |
| O=S(=O)(c1ccc(-c2ccc(O)nn2)s1)N1CCN(Cc2ccc3c(c2)OCO3)CC1 | 0.224 |
| Cc1ccccc1Cn1cnc2c(cnn2C(C)(C)C)c1=O | 1.63 |
| CN(CC1COc2ccccc2O1)S(=O)(=O)c1csc(C(N)=O)c1 (stereo not drawn) | -4.17 |
| CCOC(=O)c1[nH]c(-c2ccc3c(c2)OCO3)nc1C | -2.88 |
| COc1ccc(-n2c(SCc3cc(=O)n4ccccc4n3)nc3nnc(C)c-3c2N)cc1 | 1.2 |
| CCOc1ccc(Nc2nc(-c3sc(N)nc3C)cs2)cc1 | -8.01 |
| CCC(C)NC(=O)C(=O)NCc1ccc(Cl)cc1 (stereo not drawn) | 1.29 |
| O=C(Nc1nccs1)c1ccccc1Br | -6.57 |
| CC(=O)c1cccc(NS(=O)(=O)c2cccc(C)c2)c1 | -7.09 |
| CN(Cc1ccc(F)cc1)CC(O)c1ccccc1 (stereo not drawn) | 6.06 |
| COc1ccc(/C=C2\CCOC2=O)cc1 | -3.55 |
| Cc1nn(Cc2ccccc2)c(C)c1NC(=O)c1noc2c1CCc1ccccc1-2 | -5.09 |
| COc1ccccc1CNC(=O)Nc1cn(CC(C)C)c(=O)c2ccccc12 | -4.21 |
| CC(NC(=O)c1ccccc1F)c1ccc2c(c1)OCCO2 (stereo not drawn) | -0.28 |
| Cc1cccc(N2CCN(S(C)(=O)=O)CC2)c1C | -0.641 |
| CCO/C(O)=C(/C=N/c1cc(C)nn1-c1ccccc1)C(C)=O | 0.708 |
| COCCNC(=O)c1nn(C)c2c1CSc1ccccc1-2 | 21.4 |
| COc1ccc(C(=O)Nc2nn3c(CC(C)C)nnc3s2)cc1 | 3.3 |
| Cc1nc2sc(C(N)=O)c(N)c2c(C)c1C | -0.712 |

| Structure (SMILES) | % Inhibition @ 10 uM [%] |
| --- | --- |
| Cc1ccc(S(=O)(=O)NCCC(=O)N2CCOCCOCCOCC2)cc1 | 0.189 |
| COc1ccc(-c2nc3scc(CCNC(=O)c4ccco4)n3n2)cc1 | 2.1 |
| CCN(CC)S(=O)(=O)c1ccc(N2CCN(C(C)C)CC2)nc1 | -1.51 |
| CC(=O)N(Cc1cc2cccc(C)c2nc1O)c1cccc(C)c1 | 3.57 |
| N#Cc1ccccc1-c1ccc(/C=C2/SC(=O)NC2=O)o1 | -5.99 |
| CCc1[nH]nc2c1C(c1ccc(OCC(N)=O)cc1)C(C#N)=C(N)O2 (stereo not drawn) | -2.56 |
| COc1ccc(OC)c(C2SCCN2S(=O)(=O)c2cccc(C(F)(F)F)c2)c1 (stereo not drawn) | -3.4 |
| COc1cccc(C2C3=C(O)CCCC3=NC(C)=C2C(=O)Nc2cc(C)ccn2)c1 (stereo not drawn) | 13.2 |
| CCC(CC)C(=O)Nc1ccc(NC(=O)c2cccs2)cc1 | -3.29 |
| CC1=C(C(=O)OC2CCCCCC2)C(c2ccccc2C(F)(F)F)CC(=O)N1 (stereo not drawn) | -1 |
| CN(Cc1ccco1)C(=O)Cn1ncc2c1-c1ccccc1OC2 | -0.692 |
| O=C(NCCC1=CCCCC1)c1cc(-c2ccccn2)nc2ccccc12 | -0.406 |
| Cc1ccc2nc3c(O)n(CC(=O)N4CC(C)CC(C)C4)ncc-3c2c1 (stereo not drawn) | -1.06 |
| Cc1ccc(C)c(Oc2c(C(F)(F)F)oc3c(CN4CCN(C)CC4)c(O)ccc3c2=O)c1 | 4.84 |
| CCN(CC)S(=O)(=O)N1CCC(C(=O)NCCN2CCOCC2)CC1 | 1.16 |
| CC1=C(C(=O)OC2CCCCCCC2)C(c2cc3c(cc2Br)OCO3)CC(=O)N1 (stereo not drawn) | -2.24 |
| CC(=O)N[C@@H](CC(C)C)C(=O)NCC#N | 7.72 |
| Cc1nn(C(C)C(=O)NCCCN2CCCCCC2)c(=O)c2cc3sccc3n12 (stereo not drawn) | -5.19 |
| CC(=O)NCCc1nc2ccccc2n1CCCOc1cc(C)ccc1C(C)C | -2.28 |
| COc1cc(/C=C2\SC(N)=NC2=O)cc(Br)c1OCc1ccccc1 | 1.14 |
| COc1ccc(S(=O)(=O)NC2=NC(=O)/C(=C\c3ccc(OC)c(OC)c3)S2)cc1 | 34.3 |
| CCC[C@@H](/C=C/S(=O)(=O)c1ccccc1)NC(=O)[C@H](Cc1ccc2ccccc2c1)NC(=O)N1CCC(N2CCOCC2)CC1 | 0.173 |
| Cc1ccc(CN2C(=O)N/C(=C\c3ccccc3OCc3ccc(C(=O)O)cc3)C2=O)cc1 | 3.72 |
| O=C(NCCN1CCOCC1)C(c1ccccc1)c1ccccc1 | 0.709 |
| COc1ccc(-n2c(O)cnc2Nc2nc(C)cc(C)n2)cc1OC | 5.55 |

| Structure (SMILES) | % Inhibition @ 10 uM [%] |
| --- | --- |
| Cc1cc(=O)n2nc(N3CCCC3C(=O)NCc3cccc(Cl)c3)sc2n1 (stereo not drawn) | -5.63 |
| C=CCOc1cccc(C2c3c(oc4ccccc4c3=O)C(=O)N2c2nnc(C)s2)c1 (stereo not drawn) | 0.189 |
| O=C(C(c1ccccc1)c1ccccc1)N1CCN(C2CC3CCC2C3)CC1 (stereo not drawn) | 0.206 |
| O=C1CC(c2ccccc2)CC(O)=C1/C=N/c1ccc(O)cc1 (stereo not drawn) | -5.01 |
| CCCn1c(=O)c(C(=O)Nc2cccc(Cl)c2Cl)c(O)c2ccccc21 | 4.31 |
| O=C(O)CCc1ccc2ccccc2c1Br | -0.902 |
| O=C(c1ccccc1C(=O)N1CCN(c2ccc(F)cc2)CC1)N1CCN(c2ccc(F)cc2)CC1 | -4.69 |
| COc1ccc(C2C(C#N)=C(N)Oc3c2c(C)nn3-c2cccc(Cl)c2)cc1 (stereo not drawn) | -6.92 |
| c1ccc2c(c1)OCC(c1csc3ncnc(N4CCOCC4)c13)O2 (stereo not drawn) | -7.14 |
| Cc1ccc(-c2nc(NC(=O)C(C)C)sc2C)cc1 | -7.96 |
| COc1cccc(NC(=O)CN(c2cccc(OC)c2)S(=O)(=O)c2ccccc2)c1 | -5.67 |
| CC1CCCCN1C(=O)CSc1nc(-c2cccs2)cc(C(F)(F)F)n1 (stereo not drawn) | -0.958 |
| O=C(Cc1ccccc1)Nc1ccccc1[N+](=O)[O-] | -2.42 |
| CCN(CC)C(=O)c1sc(NC(=O)c2c(OC)cccc2OC)c(C#N)c1C | -0.736 |
| c1ccc(C2CCC(NCCN3CCCCC3)CC2)cc1 (stereo not drawn) | -4.75 |
| N#CC1(NC(=O)[C@H](Cc2c(F)cccc2F)NC(=O)c2ccc(-c3ccccc3Cl)c(Cl)c2)CCOCC1 | -5.2 |
| CC(=O)Nc1nnc(CCS(=O)(=O)c2ccc(Cl)cc2)s1 | 2.92 |
| COCCCNc1nc2c(c(=O)n(Cc3ccc(OC)cc3)c(=O)n2C)n1C | -3.27 |
| COc1ccccc1-c1cc(C(F)(F)F)nc(N2CCN(Cc3ccccc3)CC2)n1 | 2.59 |
| O=C(CC1Sc2ccccc2NC1=O)Nc1ccc(Cl)c(C(F)(F)F)c1 (stereo not drawn) | 2.47 |
| CCCS(=O)(=O)c1nc(S(=O)(=O)c2ccc(C)cc2)c(NCCN2CCOCC2)s1 | 1.15 |
| CC(CCN1CCCN(C)CC1)c1ccccc1 (stereo not drawn) | 2.7 |
| Cc1cc2cc(CNC(=S)NCCc3ccccc3)ccc2[nH]1 | -0.138 |
| COc1cc(C(=O)N2CCN(C34CC5CC(CC(C5)C3)C4)CC2)cc(OC)c1OC | -5.48 |
